According to PubChem BioAssay AID1159614 (National Center for Advancing Translational Sciences (NCATS), 2016):
The whole screen tested about 45,000 compounds, of which about 65 (0.1%) were called active. Calls follow the shape of the dose curve; as a rule, active = well fitted activation curve with a large enough effect; inconclusive = small, poorly fitted or top-dose-only effect; inactive = no such curve, though single readings can be large or run the other way. Some of the results follow.

target: Galactocerebrosidase (Homo sapiens) (UniProt P54803); assay: A Novel Cell-Based Assay to Identify Small Molecules for B -Galactocerebrosidase; conditions: 145M-Twi-hGALC-G270D cells (Twitcher mouse brain line with human GALC G270D), HMU-beta-Gal fluorescence, 48 h; series mostly up to 57.5 µM; activation: at the top concentration; also: 0% is about no effect; nearly all actives have a fitted effect of over 65% in size
Chain of UniProt P54803 (P54803 whole entry, looked up): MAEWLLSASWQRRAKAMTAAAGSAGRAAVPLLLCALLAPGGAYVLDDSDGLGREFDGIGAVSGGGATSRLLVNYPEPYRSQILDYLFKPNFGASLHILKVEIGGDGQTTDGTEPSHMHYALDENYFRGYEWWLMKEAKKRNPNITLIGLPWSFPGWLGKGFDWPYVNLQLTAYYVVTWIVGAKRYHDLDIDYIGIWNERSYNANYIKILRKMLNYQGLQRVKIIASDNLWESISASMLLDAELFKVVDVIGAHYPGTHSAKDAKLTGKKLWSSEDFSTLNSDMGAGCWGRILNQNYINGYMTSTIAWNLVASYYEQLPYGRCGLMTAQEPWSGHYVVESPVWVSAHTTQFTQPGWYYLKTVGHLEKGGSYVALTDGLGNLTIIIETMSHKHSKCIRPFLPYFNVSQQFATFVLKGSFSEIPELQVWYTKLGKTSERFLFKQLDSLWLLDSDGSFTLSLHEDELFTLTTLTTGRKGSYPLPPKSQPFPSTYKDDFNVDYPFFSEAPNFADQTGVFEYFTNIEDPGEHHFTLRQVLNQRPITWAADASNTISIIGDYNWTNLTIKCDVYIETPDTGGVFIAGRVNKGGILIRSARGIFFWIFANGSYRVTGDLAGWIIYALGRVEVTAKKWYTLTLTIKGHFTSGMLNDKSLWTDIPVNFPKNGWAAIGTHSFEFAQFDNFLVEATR
Method in brief: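 Mutant human GALC (G270D), stably expressed in a Twitcher mouse brain cell line lacking endogenous GALC, is measured in live-treated cells via 6-hexadecanoylamino-4-methylumbelliferyl-β-galactoside hydrolysis (0.1 mM final, pH 5.2) with fluorescent detection.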

activation, inactive:
CCc1ccc(NC(=O)CCCc2nnc3n(CCCOC)c(=O)c4sccc4n23)cc1 -9.86%, CSc1cccc(NC(=O)CN2C(=O)CCc3cc(S(=O)(=O)N4CCCCC4)ccc32)c1 -9.01%, Cc1ccc(NC(=O)C(C)Sc2nc3c(c(=O)[nH]2)CCCC3)cc1Cl (stereo unspecified) -34.4%, CCOc1ccc(CNC(=O)C2CCCN(c3nn4cc(-c5ccc(F)cc5)nc4s3)C2)cc1 (stereo unspecified) -11.6%, COc1ccc(N2CCN(CCCNC(=O)c3ccc4nc(Cc5ccccc5)oc4c3)CC2)cc1 -5.07%, COC(=O)c1ccccc1NC(=O)Cn1c(=O)n(CCCC(=O)NCc2ccccc2Cl)c(=O)c2ccccc21 -6.72%, CCc1ccc2oc(-c3ccc(NC(=O)c4cccc(Cl)c4Cl)cc3)nc2c1 -20.6%, O=C(Cn1cnc2c(nc3n2CCCCC3)c1=O)Nc1cccc(C(F)(F)F)c1 -15.9%, CCOc1ccc(/C=C/c2nc(C#N)c(NCCCN(C)C)o2)cc1 -0.669%, O=C(COc1ccccc1Cl)N(Cc1cccc(F)c1)C1CCS(=O)(=O)C1 (stereo unspecified) -16.9%, CCOc1ccccc1NC(=O)CSc1ccc2nc(-c3ccccc3)cn2n1 -10.1%, Cc1ccc(N2C(=O)CCSC23C(=O)N(Cc2ccc(F)cc2)c2ccccc23)cc1 (stereo unspecified) -0.411%, CCOc1cccc(C(=O)N(Cc2ccc(F)cc2)Cc2ccco2)c1 -11.9%, COc1ccc(OC)c(NC(=O)Cn2c(=O)n(-c3ccc(Cl)cc3)c(=O)c3c(C)c(C)sc32)c1 3.37%, O=C1CC(c2ccc(F)cc2F)c2cc3c(cc2N1)OCO3 (stereo unspecified) 0.409%, COc1ccc(Cl)cc1NC(=O)C1CCN(S(=O)(=O)c2ccc(F)cc2)CC1 -17.5%, COc1ccc(C(=O)N(c2ccc(C)cc2)S(=O)(=O)c2ccc(C)cc2)cc1 -3.82%, COCCn1c(SCC(=O)c2ccc(F)cc2)nc2cc(C(=O)NC3CCCC3)ccc2c1=O -5.33%, Cc1ccc(N2C(=O)CS(=O)(=O)C23C(=O)N(Cc2ccc(Cl)cc2)c2ccccc23)cc1C (stereo unspecified) -27.1%, CCc1cccc(CC)c1NC(=O)Cn1nnc2sc3c(c2c1=O)CCCC3 -16.8%, CCOC(=O)c1c(NC(=O)COc2ccc(C(C)(C)C)cc2)sc2c1CCCC2 0.747%, Cc1ccc(Cc2nc3ccccc3nc2SCC(=O)NCc2ccccc2Cl)cc1 -8.05%, Cc1ccc(NC(=O)c2c(C)nn(-c3ccccc3)c2-n2cccc2)c(Cl)c1 15.9%, COC(=O)c1ccccc1NC(=O)Cn1c(CCC(=O)O)ccc1-c1ccc(C)cc1 -6.68%, Cc1ccc2c(c1)N(C(=O)CCC(=O)NCc1cccs1)CC(C)O2 (stereo unspecified) -0.591%, CCOC(=O)C1CCN(C(=O)Cn2ncc3c4ccccc4n(Cc4ccccc4)c3c2=O)CC1 -23.8%, Cc1cccc(CC(=O)Nc2c(C(=O)Nc3cccc(F)c3)oc3ccccc23)c1 -11.5%, CC1CCN(C(=O)CSc2nnc(NC(=O)Nc3ccccc3)s2)CC1 -35.9%, Clc1cccc(-n2ncc3c(NCCCN4CCOCC4)ncnc32)c1 -15.3%, CCOc1ccccc1C(=O)NCc1ccc2c(c1)CCN2C(=O)c1ccccc1 -14.9%, Cc1cccc(Nc2nc3c(S(=O)(=O)c4ccc(Br)cc4)nnn3c3ccsc23)c1C -17.9%, Cc1cc(C)c2oc(-c3cccc(NC(=O)COc4ccccc4Cl)c3C)nc2c1 -11.4%, Cc1ccc(NC(=O)CCSc2nc(-c3ccc4c(c3)OCO4)cc(C(F)(F)F)n2)c(C)c1 -3.57%, CC1=C(C(=O)Nc2cccnc2)C(c2ccccc2Cl)n2nc(-c3ccccc3)nc2N1 (stereo unspecified) -0.451%, Cc1cc(NC(=O)CSc2ncc(C(=O)Nc3ccc(C)c(C)c3)c(=O)n2C)no1 -3.35%, COc1ccc(CCNC(=O)c2ccc(Cn3c(SCC(=O)NCCC(C)C)nc4cc5c(cc4c3=O)OCO5)cc2)cc1OC -15.5%, CS(=O)(=O)c1ncc(Cl)c(C(=O)Nc2c(C(=O)c3ccc(Cl)cc3)oc3ccccc23)n1 -27.3%, COc1cccc(-c2nc3c(C#N)c[nH]n3c2NC2CCC(C)CC2)c1 (stereo unspecified) -13.8%, Cc1ccc(C2CC(=O)n3nc(-c4cccc(C)c4)nc3S2)cc1 (stereo unspecified) -20.3%, COc1cc(-c2ccno2)ccc1S(=O)(=O)N1CCN(c2ccccc2)CC1 3.24%, CC(C)C(=O)Nc1nnc(SCc2cc(=O)n3ccccc3n2)s1 2.91%, CN(C)c1ccc(CNC(=O)C2CCN(S(=O)(=O)c3ccc4[nH]c(=O)ccc4c3)CC2)cc1 -14.2%, Cc1ccc2nc(CN3CCN(S(=O)(=O)c4ccc(C)c(C)c4)CC3)oc2c1 -18%, CC(=O)c1c(C)n(-c2ccc(C)cc2)c2ccc(OC(=O)COc3ccccc3)cc12 -9.73%, O=C(Nc1ccc2oc(-c3ccc4ccccc4c3)nc2c1)c1cc(Cl)ccc1Cl 4.87%, CCn1c(=O)c2cc(C(=O)NCCc3ccc(Cl)cc3)sc2c2ccccc21 -16.3%, CCn1c(=O)c2sccc2n2c(CCC(=O)Nc3ccc(C(C)C)cc3)nnc12 -8.18%, Cc1ccc(N(C)C(=O)C2CCN(S(=O)(=O)c3cn(C)cn3)CC2)cc1 -9.83%, CC1CCN(CCCNC(=O)CN2C(=O)CSc3ccc(S(=O)(=O)N4CCOCC4)cc32)CC1 -7.35%, COc1cc(C2c3c(oc4ccccc4c3=O)C(=O)N2Cc2ccc(C)cc2)ccc1O (stereo unspecified) -29.5%, COc1ccc(OCC(=O)NC(Cc2c[nH]c3ccccc23)C(=O)O)cc1 (stereo unspecified) -9.99%, CCc1nnc(SC(CC)C(=O)Nc2cc(C)ccc2C)c2cc3occc3n12 (stereo unspecified) -15.5%, CC1(COc2ccc(CC3SC(=O)NC3=O)cc2)CCCCC1 (stereo unspecified) -13%, CN(C)CCc1c[nH]c2ccc(CS(=O)(=O)N3CCCC3)cc12 -3.67%, COc1ccc(NC(=O)c2cc3c(=O)n(Cc4cccnc4)ccc3nc2C)c(OC)c1 -16.8%, Cc1ccc(CNC(=O)Cn2ccn(-c3ccc(F)cc3)c(=O)c2=O)cc1 -20.2%, O=C(Nc1ccc(N2CCOCC2)c(C(=O)O)c1)c1ccc(Br)cc1 28.4%, Cc1cccc(CN2C(=O)c3ccccc3S(=O)(=O)c3ccc(C(=O)NC4CCCCC4)cc32)c1 -5.66%, Cc1ccc2nc3c(cc(C(=O)NCc4ccco4)c(=N)n3C(C)C)c(=O)n2c1 -17.1%, Cc1ccc(NC(=O)c2c(C)oc3ncn(CC(C)C)c(=O)c23)nc1 5.75%, CC(=O)c1cccc(NC(=O)Cn2cc(C(=O)c3cccc(Cl)c3)c(=O)c3ccc(C)nc32)c1 -11.9%
